Molecular target: TMPRSS2 (Homo sapiens, UniProt O15393)
Sequence (O15393 106-492): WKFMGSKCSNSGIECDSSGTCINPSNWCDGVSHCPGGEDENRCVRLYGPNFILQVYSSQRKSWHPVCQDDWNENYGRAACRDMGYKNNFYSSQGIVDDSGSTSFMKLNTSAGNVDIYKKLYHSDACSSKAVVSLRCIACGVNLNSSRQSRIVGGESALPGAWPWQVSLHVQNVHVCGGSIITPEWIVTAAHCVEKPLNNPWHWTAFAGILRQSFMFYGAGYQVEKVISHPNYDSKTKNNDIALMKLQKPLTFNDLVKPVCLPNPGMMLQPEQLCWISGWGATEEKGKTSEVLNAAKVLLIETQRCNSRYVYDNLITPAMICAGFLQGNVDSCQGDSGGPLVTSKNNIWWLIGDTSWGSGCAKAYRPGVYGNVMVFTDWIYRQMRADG

SMILES	inhibition of TMPRSS2 (in words)
CC(C)C[C@H](NC(=O)OCc1ccccc1Cl)C(=O)N[C@@H](C[C@@H]1CCNC1=O)C(O)S(=O)(=O)O (some centres unmarked) [EB54]	no inhibition of TMPRSS2
CC(C)C[C@H](NC(=O)OCc1cccc(C(F)(F)F)c1)C(=O)N[C@@H](C[C@@H]1CCNC1=O)C(O)S(=O)(=O)O (some centres unmarked) [NK01-63]	no inhibition of TMPRSS2
